Measurements: the supplement of paper PMC3334620
Whole data set: some 33,000 sequences, median “E-score (-0.5 to 0.5)” near -0.01, cut for the highest 2% near 0.26. The list shows a part of the results.

molecular target: Ste12 (UniProt P13574); assay: PBM E-score (8-mer binding enrichment) (E-score (-0.5 to 0.5)); higher = stronger / more preferred TF binding; most listed sequences are background and not binding sites; conditions: protein concentration: 200 nM; construct: GST-DNA-binding domain
Experimental: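 Universal 'all 10-mer' protein binding microarrays (Agilent AMADID 015681) probed with GST-tagged S. cerevisiae TFs (full-length or DBD) made by in vitro transcription/translation (PURExpress), about 100-200 nM. Bound TF was detected with fluorescent anti-GST. Each ungapped 8-mer (which stands for itself and its reverse complement) is scored by the PBM enrichment score (E-score), a modified Wilcoxon-Mann-Whitney statistic from -0.5 to +0.5, computed with the Universal PBM Analysis Suite. Scale: above 0.35 generally sequence-specific binding.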

Row | Sequence | PBM E-score
1 | CCTTTACC | 0.102
2 | CGATTGCG | -0.188
3 | ACTTGATA | 0.0654
4 | CTGCGCCC | -0.239
5 | AGTTGCAG | 0.016
6 | GTTAGTAA | -0.0275
7 | AAGACTTG | 0.00623
8 | ATGTAGTG | -0.0846
9 | GTTATAAA | 0.218
10 | CTCACAGA | 0.00059
11 | CCGGACGC | 0.106
12 | ACAAAACA | 0.191
13 | AGTGGTGA | 0.0584
14 | AGCCATAG | -0.273
15 | ACAAGATG | -0.114
16 | ATTCGCAG | 0.158
17 | ACAAGGAG | -0.0128
18 | AAGTTAGA | 0.191
19 | CGAGATAG | -0.213
20 | TAATCCGA | -0.0463
21 | CTTAAAAG | -0.0909
22 | AGCGCGAG | -0.0135
23 | AAGCCACG | 0.0581
24 | CCATACAC | 0.167
25 | AAATTGGC | 0.0478

Row | Sequence | PBM E-score
26 | AACGGCTG | -0.0742
27 | ACATCGAG | -0.0993
28 | TTGTAAAA | 0.315
29 | GCGTTAAC | -0.106
30 | CTTTATGC | 0.0465
31 | ACCTGTAA | 0.0557
32 | CCCAGTAA | -0.0435
33 | TCGAAGAA | 0.106
34 | ACAGAAAT | 0.132
35 | ACCAGAAA | 0.142
36 | AGGCTCAT | -0.0542
37 | CCCTCCAA | -0.0867
38 | ACTATCTG | -0.104
39 | AAGTGCAT | -0.201
40 | CGAATTTA | 0.123
41 | GCAATGTA | 0.0248
42 | ACCCCTGC | -0.206
43 | TAGGCATA | -0.111
44 | GCATTGGC | -0.302
45 | CACTTTGA | -0.032
46 | GAGGGCCC | -0.133
47 | AAGCGCCT | 0.147
48 | AACCGCGG | 0.147
49 | CTGAGTTA | -0.157
50 | TATTATGA | 0.225

Row | Sequence | PBM E-score
51 | GCCTGCCC | -0.208
52 | TGGTACAA | 0.0368
53 | ACTAATCC | 0.0285
54 | ATTGGATC | -0.0185
55 | CGGGAGGC | -0.0823
56 | ATTTGTAG | 0.127
57 | ATCACGTA | 0.0346
58 | GCCACACC | 0.0355
59 | CCTACAAC | 0.0568
60 | GCACGTCA | -0.35
61 | AGCCGGCA | -0.0302
62 | CATGTTAG | -0.0804
63 | ATGATTTG | 0.0048
64 | ACCAAAGC | 0.0814
65 | AGGGTGGG | 0.35
66 | ACGCGTGC | 0.102
67 | AGAGCGAT | -0.219
68 | ATCTCAGG | 0.088
69 | AGCCAACA | 0.0636
70 | AGCGATAC | 0.0969
71 | CAGATAGG | -0.0192
72 | CAGAAAAG | 0.186
73 | AAATCTCC | -0.168
74 | AAGTCGAT | -0.0447
75 | CTGAATAC | 0.158

Row | Sequence | PBM E-score
76 | TCATGCAA | 0.0709
77 | AGCCCCAA | -0.216
78 | CCACACTA | 0.145
79 | CCTATGTC | -0.0854
80 | AATCCAGC | -0.221
81 | GATACCCC | -0.118
82 | ACTCATCT | -0.085
83 | CTGGAGAA | -0.134
84 | CAATTCGG | 0.103
85 | CCCCCTAG | -0.318
86 | ACGCGCAG | -0.138
87 | GAAATCGC | 0.0144
88 | AACTGTTC | 0.0188
89 | AAGGGGAT | 0.144
90 | ATATTCGC | 0.145
91 | GTCCGAGA | 0.0473
92 | CACATCGA | -0.125
93 | CAAAGTTG | -0.104
94 | AAGAACAT | 0.0441
95 | GGCCAAAC | -0.066
96 | CATTGGCA | -0.0155
97 | AGTCTTGG | -0.0521
98 | CGGCTAGC | -0.122
99 | TCCCCGCA | 0.187
100 | AACTCACT | -0.0984

Row | Sequence | PBM E-score
101 | ACACAACT | 0.161
102 | AGCATTGA | -0.0755
103 | AGGGAGCA | -0.292
104 | TTCGTAAA | 0.143
105 | AGCTCATA | 0.0357
106 | GCCTAGCC | -0.117
107 | CGTGACCA | -0.014
108 | CTGTAGGA | -0.0813
109 | AAGAGGCG | -0.126
110 | AGAGCCAC | 0.0432
111 | AAGCACTT | -0.0574
112 | GCCCGTGA | -0.0628
113 | CGGTAACA | 0.193
114 | CCTAGATA | -0.208
115 | GCGAGCCC | -0.137
116 | AATAGTCG | 0.0368
117 | AAGCGGTG | -0.238
118 | CAAATAAA | 0.1
119 | GTGCGGGA | -0.12
120 | ACGCGCCT | 0.046
121 | GTGGACTA | -0.0385
122 | GGCAGGCA | -0.204
123 | CCTCAAGC | -0.0822
124 | AAAACGTT | 0.257
125 | ACCGGATA | -0.0813

Row | Sequence | PBM E-score
126 | CAATAGTC | -0.0383
127 | CCCATGAC | -0.0141
128 | AAGGTATT | 0.0751
129 | CCGCACGA | -0.124
130 | ATAGCACG | -0.118
131 | CTAATGAG | 0.137
132 | ATGTTACC | 0.175
133 | GTGATCAA | -0.0907
134 | AGTGCGCG | -0.0282
135 | GGTGCACA | -0.142
136 | ATCGAAAG | 0.0602
137 | AAACATTT | 0.249
138 | AAGACAGA | 0.174
139 | TATATAGA | 0.207
140 | AGGTGCGG | -0.115
141 | GTTCGAAC | 0.0685
142 | CTTAAGGA | -0.182
143 | ATGCTCTC | -0.0854
144 | ACGTGGCG | -0.147
145 | ACCTCGCT | -0.0107
146 | ATACCCGC | 0.13
147 | CTACGGGA | -0.222
148 | AGTCGAAG | 0.0668
149 | AATAACAG | 0.164
150 | CAACAGGA | -0.173

Row | Sequence | PBM E-score
151 | ACCGCACT | 0.0325
152 | CCTATTTA | 0.186
153 | AGGAACCC | -0.194
154 | CATGAACA | -0.0149
155 | AATTCTCC | 0.258
156 | CCCTGGAC | -0.221
157 | GCCTATTA | 0.0234
158 | CACGACAG | -0.0897
159 | CACATATA | 0.0475
160 | TGAAGTCA | -0.0207
161 | CATTGATA | 0.152
162 | GCCACCCC | -0.0121
163 | ACAGACGT | 0.0256
164 | AATGGTTG | -0.0565
165 | AGCCCGTC | -0.216
166 | AAAACGAA | 0.237
167 | CGGATGCC | -0.0882
168 | AATATTGG | 0.017
169 | GATAGAGA | -0.0768
170 | ACCGGAAT | 0.084
171 | CAAATGAG | -0.00681
172 | GAACGGAA | 0.0637
173 | AGGCCGCG | -0.0686
174 | CAAACTCG | 0.0594
175 | AGTATGAG | 0.11

Row | Sequence | PBM E-score
176 | CGTTAGAC | -0.127
177 | ATTCGCAC | 0.0371
178 | CGCAAGGA | -0.148
179 | GGGCTATA | -0.141
180 | ACACCCGT | -0.161
181 | GTCCGAAA | 0.211
182 | AGTGTGTC | -0.00349
183 | GCATGATA | 0.0794
184 | CCAGTCAG | 0.00591
185 | CGAACAAG | 0.001
186 | ATTAGAGA | 0.0346
187 | ACGACAAT | -0.0369
188 | AAGGTGGT | -0.0871
189 | ACCACTAA | 0.0361
190 | CCCGTTGC | -0.145
191 | GCTGCGAC | 0.024
192 | GCAAGTTA | 0.0572
193 | GCGGCACC | 0.00611
194 | CGCTCTTA | 0.0352
195 | CTGACCCA | -0.105
196 | CAACGTAG | -0.255
197 | ATACGACG | 0.0539
198 | GCAGACGA | 0.0114
199 | CCGTTAGA | 0.0305
200 | TGTGCACA | -0.327

Row | Sequence | PBM E-score
201 | ATATTCCG | 0.0659
202 | AAGTTAGC | -0.0335
203 | CATAGTGC | -0.0329
204 | GGTTTGAA | 0.297
205 | CGCGGAGC | -0.0792
206 | ACTCCTCT | -0.0879
207 | ACTGATAA | 0.2
208 | CTATTCTC | 0.0163
209 | CTGGGCAC | -0.0199
210 | CATACTAA | 0.147
211 | TAGAGATA | -0.0229
212 | CCGACGTC | -0.112
213 | CCTAGCCA | -0.166
214 | ATATGGGA | 0.173
215 | AAGAGAAC | 0.0833
216 | AGGAGGGG | 0.285
217 | AACTCGCA | 0.00437
218 | GCACATTA | -0.0503
219 | AAATTGAA | 0.185
